Results: the supplement of paper PMC11383711
This is one part of the list. Binding of human antibodies (heavy:light variable regions, tested as scFv in one mRNA-display pool) to influenza hemagglutinin, with or without the stem antibody CR9114 bound first. Score = (mean enrichment − median) / interquartile range of that screen; higher = more enriched, 0 = typical non-binder. Active = above the paper's cut-off per screen: stems 28; unblocked H1 Solomon Islands 5, H1 Michigan 3, H3 5, H5 19, H7 2.85, both B 5; blocked 9, 7, H5 10, H7 10, B Phuket 10, B Lee 11.5. Scores are scaled within each screen and are no affinities; replicates correlate at about 0.6 to 0.9, and antibodies rare in the pool are noisier.

B1: antibody 2C03 (protein)
chain 1: VQLVESGGGVVQPGRSLRLSCAASGFTFSTYAMHWVRQAPGKGLEWVAIISYDGTYKYYADSVKGRFTISRDNLKNTLYLQMDSLRAEDTAVYYCGGECDGDCGGIDYWGQGALVTVSS
chain 2: DIVMTQSPDSLAVSLGERATINCRSSHSLLYSSNNKNYLAWYQQKPGQPPKLLIYWASTRHSGVPDRFSGSGSGTDFTLTISSLQAEDVALYYCQQYYDTPFTFGPGTKVEIK
B2: 240-14-IgG-1A06 (protein)
chain 1: QVTLKESGPVLVKPTETLTLTCTVSGFSLSNIIMGVSWIRQPPGRALEWLAHITSKDEKSYSTSLKKRLTISKDTSKSQVVLIMANMDPADTATYYCTRIRWDCGGDCYWTHDFWGQGTLVTVSS
chain 2: SYELTQPPSVSVSPGQTARITCSGGRLGDTFASWYQQRPGQAPVLVIYRDTMRPSGIPERFSGSNSGHAATLTISGTQTMDEADYYCQVWDTSASAHVFGTGTTVTVL
B3: 01.y.01 (protein)
chain 1: EVQLVESGGGLVQPGGSLRLSCAASGFTFSSYWMTWVRQAPGKGLEWVANIKQDGSSKYYVDSLKGRFTISRDNAKNSLYLQMNSLRDEDTAVYYCARDRTPGYSYGYVDRVVWRNPYYGMDVWGQGTTVAVSS
chain 2: DIQMTQRPVSLSASVGDTVTITCRASHSIATYLNWYQQKPGKAPNLLISTASDLQSGVPSRFSGSGSGTDFTLTIDSLQPEDFATYYCQQSYSIPLTFGGGTRVEIK
B4: K77-1D10 (protein)
chain 1: QVQLQESGPGLVKTSGTLSLTCAVSGGSMSSSDWWSWVRQPPGKGLEWIGEIHRSGTSNYNPSLQTRVTISVDKSKNQFSLKLTSVTAADTAVYYCARVATLYYDDNTPYSSYYFDFWGQGILVPVSS
chain 2: EIVLTQSPGTLSLSPGERATLSCRASQSVSTNYLAWYQQSPGQAPRLLIYGASSRAAGIPDRFSGSGSGTDFTLTITRLEPEDFAVYYCQHYVTSPLFGGGTKVEI
B5: R95-2C07 (protein)
chain 1: EVQLVESGGGLVQPGGSLRLSCEVSGFSFSSYWMSWVRQAPGKGLEWVANIKQDGSEKNYVDSVKGRLTISRDNAKNSLYLQMDSLRAEDTAVYYCARDGPHDFWSGYPFDYWGQGTLVTVSS
chain 2: DIQMTQSPSSLSASVGDRVTITCRASQGIRDDLGWYQQKPGKAPKRLIYAASSLQSGVPSRFSGSGSGTEFTLTISSLQPEDFATYYCLQHNSYPRTFGQGTKVEIK
B6: 014-10-1D01 (protein)
chain 1: QVQLQESGPGLVKPSQTLSLICTVSGGSVSSGNHYWSWIRQPAGRGLEWIGRIFSDGSTYYHPSLKSRVTMSLDTSKNQVSLKLSSVTAADTAMYYCARDYSGYDYLAFDIWGQGSMVTVSS
chain 2: QSVLTQPPSASGTPGQRVTISCSGDNFNIGRNTVNWYQQLPGTAPKLLIYTTNQRPSGVPDRFSGSQSGTSASLAISGLQSEDEADYYCAAWDDSLSGLWVFGGGTKLTVL
B7: R95-1B07 (protein)
chain 1: QVQLQGSGPGLVKPSGTLSLTCGVSCASISSNHVSSGVPQPPGKGGEAIGELVHNGRTIYNPSLRSRLNISLDRSKILFSLKLTSVTAADTAVYYCAFFQRGYTSGSDYWGQGTLVTVSS
chain 2: QAVVTQEPSFSVSPGGTVTLTCGLSSGSVSTNNYPSWYQQTPGQAPRTLIYSTNTRSSGVPDRFSGSILGTRAALTVTGAQAEDESDYYCMLYLGSGSWVFGGGTKLTVL
B8: 051-09-5B06 (protein)
chain 1: EVQLVESGGGLVKPGGSLRLSCAASGFPISIGWTTWVRQAPGKGLEWVGLMKSDNGGGATLYAAPMKGRFSISRDDSKNTVYLQMDRLETEDTGIYYCSSTADRDYYDTAGFLDFWGPGTLVTVSS
chain 2: DIVMTQSPLSLTVTPGESASISCRSSQNVQHSNGYNYLHWYLQKPGQSPRLLIYLGSNRASGVPDRFSGSGSGTDFTLKISRVEADDVGVYYCMQALQTRTFGGGTKVEIK
B9: 051-09-4D03 (protein)
chain 1: QVQLVQSGPEVRKPGASVKVSCKASGYTFTNHDINWVRQAPGQGLEWMGWVNPSNNNVGYAQKFRGRVTMTKDSSTSTVHMELYSLTSEDTAVYYCARGLGGGISVFGVLVRGRWFDPWGQGTLVTVSS
chain 2: DIQMTQSPSTLSASVGDRVTITCRASQSISTDLAWYQQKPGRAPKVLIFEASRLQSGVPSRFSGSGSGTEFTLTISSLQPGDVATYYCQQYNIYSWTFGQGTKVEIK
B10: K77-1E06 (protein)
chain 1: EVQVVESGGRLVRPGGSLRLSCAASGFILSNFWMTWVRQAPGKGLEFVANIKQDGSLKYYVDSVKGRFTISRDNAMNSVYLQMNSVRAEDSAVYYCARDWFGRELGAMDIWGQGTTVTVSS
chain 2: DIVMTQSPDSLAVSLGERATINCKSSQTLLSRSNNKNYLAWYQHRPGQPPKLLIYWASTRASGVPDRFSGSGSGTDFTLTITSLQAEDVAVYFCQQYYGSPLTFGGGTRVQIK
B11: W85-2E09 (protein)
chain 1: EVQLVESGGGLVQPGRSLRLSCTASGFTFSDYTMNWVRQAPGKGLEWIGFIRSNLYGGTSPYPASVRDRFTISRDDSKNIAYLQMNSLNTEDTAVYFCSRRRRGSTPLPDLWGQGTLVTVSS
chain 2: DIQMTQSPSTLSASVGDRVTITCRASQNVFSWLAWYQQKSGKAPQLLIYKASNLESGVPSRFSGSGSGTEFTLTINNLQPDDFASYYCQQYNSHSVWTFGQGTKVELK
B12: 051-10-2D06 (protein)
chain 1: EVQLVESGGGLVQPGGSLRLSCAASGFTFTRHWMSWVRQAPGKGLEWVANVKQDGSDKYYVDSVKGRFTISRDNAKNSVYLQMNSLRAEDTAVYYCARYGGSYLDYWGQGTLVTVSS
chain 2: QSALTQPASVSGSPGQSISISCTGTSSDVGNYNFVSWYQQHPGKAPKLMIYEDNKRPSGVSSRFSGSKSGNTASLTIFGLQAEDEADYYCCSYAGSSTYVFGTGTRVPVL
B13: R95-2E11 (protein)
chain 1: EVQLVESGGGLVQPGRSLRLSCAASGFTFDDYAMHWVRQAPGKGLEWVSGISWNSGHLGYADSVKGRFTISRDNVKNSLYLEMNSLGPEDTALYYCAKDIVGDYGSGSYYDYWGQGTLVTVSS
chain 2: SYELTQPPSVSVAPGQTARITCGGNNIGSKSVHWYQQKPGQAPVLVVYDDSDRPSGIPERFSGSNSGNTATLTISRVEAGDEADYYCQVWDGSSDHRYVFGTGTKVTVL
B14: antibody 1A03 (protein)
chain 1: VQLLESGGGLVNPGRSLRLSCTASGFTFGDYAVSWFRQAPGKGLEWVGFIGSKKYGDTIEYAASVRGRFTISRDDFQSTAYLQMNSLRTEDTGVYFCSRDRQLAEHSMDVWGQGTTVTVSS
chain 2: DIQMTQSPSSLSASVGDRVTIPCRANQSISTHINWYQQKPGKAPKLVIYGASNLETGVPSRFSGGGSGTDFTLTISSLQPEDIATFYCQQYDTFPITFGQGTRLEIK
B15: W85-1F04 (protein)
chain 1: QVQLVQSGAEVKKPGASVKVSCKASGYTFTTYDINWVRQATGQGLEWMGWMNPNSGNTGSAQNFQGRVTMTRNTSINTAYMELSSLRSDDTAVYYCVRGLGYCTSTSCYGSWFDPWGQGTLVTVSS
chain 2: EIVMTQSPATLSVSPGERATLSCRASQNISSNLAWYQQKAGQVPRLLIYGASTRATGCPARFSGSGSGTEFTLTISSLQSEDFAVYYCQQYDNWTPITFGQGTRLEIK
B16: 16.ND.95 (protein)
chain 1: EVQLVESGGGMVQPGRSLRLSCAASGFTFGNYAMHWVRQAPGKGPEWVAVISYDGSQKYYTESVKGRFTISRDSSRNMVFLQMNSLRPDDTALYYCVRDRAASLDYWGQGTLVTVPS
chain 2: DIQMTQSPVSPSGSVGDRVTITRRASQSIARVVNWYQQKPGRAPKLLIFYASSLESGGPSRFSGRGFGTDFTITISGLQPEDFATYYCQQRYSAPYTFGQGTNLEIK
B17: 009-10-2G06 (protein)
chain 1: EVQLVESGGGFVRPGGSLRLSCVGSGFNFDDSAMHWVRQGPGKGLEWVAGINWKSNDIAYVESVKGRFTISRDNAKRTLFLQMNSLRPDDTALYFCAKDRAGYFYAMAVWGQGATVTVSS
chain 2: SYELTQPPSMSVAPGQTAKITCGGDHIGIRSVHWYLRRPGRAPVLVLYDLNDRPLGIPERFSGSNSGHTATLTISGVEAGDEGDYYCQVWDGSGDNRGIFGGGTKLTVL
B18: R95-2B02 (protein)
chain 1: QVQLVQSGAEVKKPGASVKVSCKASGYTFTGYYLHWVRQAPGQGLEWMGWINPDSGGTSFAQKFQGWATMTSDTSISTAYMELSGLKSDDTAVYYCARIQRAGSGFDLWGQGTMVTVSS
chain 2: QSALTQPASVSGSPGQSITISCSGTSSDVGSYNLVSWYQQHPGKTPKLMIYDVSKRPSGVSNRFSGSKSGSTASLTVSGLQAEDEADYYCYSYAGSRAWVFGGGTKLTV
B19: antibody 1D02 (protein)
chain 1: EVQLVESGGGLEQPGRSLRLSCEASGFTFDEYAMHWVRQAPGKGLEWVSGISWSSGVIGYADSVRGRFTISRDNAKNSLYLQMNSLTGEDTALYYCAKDSVAETAIRGYYFDYWGQGTLVTVSS
chain 2: DIQMTQSPSTLSASVGDRVTITCRASQYISRWLAWYQQKPGKAPNLLIYDASSLETGVPSRFSGSGSGTEFTLTINSLQPDDFATYYCQQYHSLSALTFGGGTKVEIK

Key:
[1] = target: H1 HA stem construct (mini-HA #4900); assay: mRNA display binding score; higher = more enriched on the antigen; conditions: antigen blocked with: nothing
Protocol: (§1)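 A pool of natively paired antibodies, displayed as scFv on mRNA, was selected once on antigen-coated beads and sequenced before and after; two replicates.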

[2] = target: H3 HA stem construct (H3ssF); assay: as above; conditions: antigen blocked with: nothing
Protocol: as §1

Row | Binder | mRNA display binding score [1] | mRNA display binding score [2]
1 | B1 | inactive: -0.175 | inactive: -0.412
2 | B2 | inactive: -0.883 | inactive: 0.0836
3 | B3 | inactive: 0.107 | inactive: -0.504
4 | B4 | inactive: 0.381 | inactive: 0.269
5 | B5 | inactive: 0.657 | inactive: 1.44
6 | B6 | inactive: -0.245 | inactive: -0.437
7 | B7 | inactive: -0.543 | inactive: 0.548
8 | B8 | inactive: 0.103 | inactive: 0.484
9 | B9 | inactive: 0.458 | inactive: -0.131
10 | B10 | inactive: -0.399 | inactive: -0.65
11 | B11 | inactive: 0.403 | inactive: -0.127
12 | B12 | inactive: -1.27 | inactive: 1.37
13 | B13 | inactive: -1.11 | inactive: -0.63
14 | B14 | inactive: -0.188 | inactive: -0.133
15 | B15 | inactive: 0.439 | inactive: -0.19
16 | B16 | inactive: 1.73 | inactive: 1.08
17 | B17 | inactive: -1.04 | inactive: -0.748
18 | B18 | inactive: -1.01 | inactive: -0.315
19 | B19 | inactive: -0.459 | inactive: -0.669
